# In all, about 150,000 compounds went through this assay and about 540 (0.36%) showed an effect of 50% or more. The list shows a part of the results.
# Tested on: Plasmodium falciparum
# Assay: Primary screen in NF54 nanoGlo assay, in single point, at 2uM, 72h; a lower Z score goes with more inhibition
# Type: functional, Erythrocyte
# Details: timepoint 72 hour
SMILES,% Inhibition [%],Z score
COC1CCN(S(=O)(=O)NCc2ccc3sccc3c2)CC1,-2,0.28
COc1ccccc1CNC(=O)c1ccc(-n2cncn2)nn1,-22,2.78
CCC(C)C(=O)N1CCCC(c2nc(-c3ncc[nH]3)no2)C1 (configuration not stated),-15,1.33
CC(=O)c1nn(-c2ccc(OC(F)(F)F)cc2)nc1Nc1ccc(Cl)cc1,-11,1.3
CCn1cc(C(=O)NC(C)(C)Cc2ccc(Cl)cc2Cl)nn1,-12,1.89
COc1ccc(CN2CC[C@H](CNC(=O)c3ccc[nH]3)C2)cc1O,-5,0.93
O=C(Cn1cccn1)NCc1cccnc1-n1cnc2ccccc21,15,-1.96
O=C(NC[C@H]1CCCO1)/C(=C\c1cccc(Oc2ccccc2)c1)NC(=O)c1ccc(Cl)cc1,-4,0.55
CCC1(CCC(=O)NC(Cc2ccccc2)c2ccccc2)CCC(=O)N1 (configuration not stated),-3,0.5
CS(=O)(=O)CCn1cnc(-c2ccccc2)c1CCc1ccccc1,-2,0.4
CC1CCCCC1OCCNCCn1cccn1 (configuration not stated),-5,0.7
CC[C@H](NC(=O)CCn1nccc1C)c1nc(C)no1,-6,1.18
COc1cc2c(cc1-c1cn([C@H]3CCNC3=O)nn1)OCO2,-19,1.66
CS(=O)(=O)CC(=O)N(Cc1ccncc1)C1CC1,-12,1.2
CCc1n[nH]c(-c2nc(-c3ccccn3)nn2C2CCN(C)CC2)c1C,-11,1.68
CCCCCNC(=O)CCn1ccnc1,3,-0.29
Cc1cc(C(=O)N2CCN(c3ccccc3F)CC2)nc2ccnn12,3,-0.55
O=C(Nc1ccc(CCN2CCCC2)cc1)c1ncccc1F,-14,2.33
CC(C)(C)c1nccc(NC2CC3CCC2O3)n1 (configuration not stated),-13,2.13
c1cc(CN[C@H]2CCOC3(CCOCC3)C2)cc(N2CCCC2)c1,-11,1.53
CC(C)c1cc(C(=O)N2C[C@@H]3CC[C@H]2CN(CCCc2ccccc2)C3)[nH]n1,-10,0.98
C[C@@H](CN1CCCC1=O)NC(=O)c1cnc2c(c1)ncn2C,-4,0.53

SMILES,% Inhibition [%],Z score
Cc1ccc(Oc2cccc(C(=O)Nc3cnc(-n4nc(C)c(C)c4C)nc3)c2)nn1,1,-0.13
O=C(CN1CCCc2nc(-c3ccncc3)ncc2C1=O)NCc1ccco1,-6,1.02
O=C(NCC1CCc2ccccc21)N1CCCC(C2CCCCO2)C1 (configuration not stated),-8,0.82
Cn1cnc(CNC(=O)[C@H]2CC2(C)C)n1,-14,1.48
COCC1(CNC(=O)c2cc(F)cc(C#N)c2)CCC1,-14,1.42
O=C(NCCS(=O)(=O)N1CCN(c2cccc(Cl)c2)CC1)c1cccs1,23,-2.9
CCC(=O)N1CCC(Cc2n[nH]c(C(C)C)n2)CC1,-9,1.37
COc1cccc(-n2cnc3cc(C(=O)NCc4cccnc4)ccc3c2=O)c1,-8,1.08
Cc1cccc(NC(=O)Nc2ccccc2-c2cc3ccccc3[nH]2)c1,-10,1.52
CCn1nccc1-c1cnc2nc(C)nn2c1,-6,0.88
Cc1nn(C)c(Cl)c1CN1CCCC[C@@H]1Cn1cncn1,-6,0.7
Cc1cccc(S(=O)(=O)N2C[C@H](c3cn(C)cn3)[C@@H](N)C2)c1F,0,0.09
O=C(N[C@H]1CCCCNC1=O)c1ccc2ccccc2c1,3,-0.64
COC[C@H](C)c1nc(C2(c3ccc(C)cc3)CCOCC2)no1,-4,0.84
CN1CCC(Cc2nc(Cn3cc4ccccc4n3)n(CCO)n2)CC1,-10,1.94
CC(C)[C@@H](c1ccc(F)cc1)N(C)Cc1nnn(CC(F)(F)F)n1,-1,0.1
O=C(Nc1ccccn1)N[C@H]1CC(=O)N(c2ccc3c(c2)OCCO3)C1,5,-0.7
CCOC1CC(O)(CNC(=O)Cc2ccsc2)C1 (configuration not stated),-2,0.36
Cn1ncc2c(Nc3ccc4c(c3)nc(C(C)(C)C)n4C)ncnc21,2,-0.35
CCN(CC)S(=O)(=O)c1ccc2c(c1)cc(C(=O)N1CCN(C)CC1)n2C,-7,1
O=C1C[C@H](c2cccc(O)c2)c2c(n(C3CCCCCCC3)[nH]c2=O)N1,-6,0.81
Cc1ccc([C@@H](C)NC(=O)N2CCC[C@H]3C(=O)N(C)C[C@H]32)cc1F,-13,2.48

SMILES,% Inhibition [%],Z score
O=C(Nc1nccs1)c1cc2n(n1)CCCO2,-12,1.92
CCOc1c(CNCCO)cc(Br)cc1OC,-6,0.72
CN(C)C(=O)c1ccc(NCc2ccc(Cn3ccnc3)cc2)nc1,-7,0.99
CCN1CCC(N(C)C(=O)c2cc3cc(Cl)ccn3n2)C(C)C1 (configuration not stated),-2,0.22
CCOc1ccccc1NC(=O)c1ccc(F)c(S(=O)(=O)n2c(/C=C/c3ccccc3)nc3ccccc32)c1,-10,1.31
CCn1cc(C2OCCC2CNCc2cnc(N(C)C)s2)cn1 (configuration not stated),-13,1.44
CNc1cc(-c2cc(C)c3nc(C)nn3c2)c2cc[nH]c2n1,-10,1.87
CCCNC(=O)c1[nH]cnc1C(=O)N[C@H]1CCc2ccccc21,12,-1.42
O=C(Nc1ccc2cc[nH]c2c1)N1CCO[C@H](c2ccc(C(F)(F)F)cc2)C1,5,-0.59
Cc1ncccc1OCc1nnc(C2CC2)o1,-2,0.24
C[C@H]1CC(F)(F)CCN1Cc1cc(C(=O)O)cs1,-2,0.17
CC(C)n1cnc(C(=O)N2CCC3C(CCCN3C3CC3)C2)c1 (configuration not stated),-5,0.57
C[C@@H](CN1CCCC1=O)NC(=O)NC1CCCCCCC1,-32,3.77
COC(=O)N1CC(C)(NC(=O)Nc2ncccc2OC)C1,-8,1.17
NC(=O)c1nsc2c(=O)n(CC(=O)Nc3ccccc3F)cnc12,-13,1.68
CC1CC1C(=O)NCCC(=O)NCCCOc1ccc(F)cc1 (configuration not stated),-15,1.34
CN1CCn2nc(C(=O)N3C[C@H]4CCC[C@H]4C3)cc2S1(=O)=O,-2,0.37
Cn1cnc(C(=O)NCC2CC(F)(F)C2)c1,-6,1.28
O=C(Nc1cccc2ncccc12)NC1CCN(Cc2cccs2)CC1,-3,0.58
O=C([C@@H]1COc2ccccc2O1)N(c1ccccc1)c1nc2ccccc2s1,-13,2.48
Cc1ccc(Cc2nc(N3CCN(CCC(C)C)CC3)c3c(C)nn(-c4ccccc4)c3n2)cc1,-4,0.42
C[C@@H](Cc1csc2ccccc12)NC(=O)c1ccccc1F,-4,0.45

SMILES,% Inhibition [%],Z score
O=C(Nc1nc2ccccc2[nH]1)[C@@H]1COCCO1,-8,0.76
CC(C)c1noc(-c2ccnc(NCC3(N(C)C)CCOCC3)c2)n1,0,-0.01
CN1CCN(c2ccccc2NC(=O)c2cc(=O)[nH]c3ccccc23)CC1,-2,0.2
Cc1cc(C)n(CCN(C)Cc2ccc(OC(C)C)c(CO)c2)n1,0,-0.02
COc1ccc(CN(C)C(=O)c2[nH]c(=O)[nH]c2C)cc1Cl,-3,0.52
COCCc1noc(CN2CCCc3occc3C2)n1,-37,4.3
COc1cc(Cl)ccc1CNC(=O)[C@H]1C[C@@H]1C(F)(F)F,1,-0.1
CC(=O)NCCC(=O)N[C@H](CCC(=O)OCc1ccccc1)C(=O)OCc1ccccc1,-1,0.13
CN(C)CC1(NC(=O)c2ccc(Cl)cc2)CC1,-4,0.63
COc1cccc(C(=O)/N=C(\NCc2ccccn2)OCC(C)C)c1,5,-0.96
CCN1CCC[C@H]1CNC(=O)c1cnc(-c2cccnc2)nc1,10,-1.61
Cc1ccc(C(=O)Nc2cccnc2C2CC2)cn1,-5,0.76
O=C(O)[C@H]1CCCN1C(=O)[C@@H]1CCCN1C(=O)[C@H](Cc1ccccc1)n1c(=O)[nH]c2ccccc2c1=O,-4,0.57
CC1=NS(=O)(=O)NC(C)=C1CCC(=O)Nc1ccccc1Oc1ccccc1Cl,-13,2.16
O=C1C[C@]2(CCN(c3cc(-c4ccccc4)nc4ccccc34)C2)C(=O)N1,-14,1.34
Cc1ccc(NC(=O)Cn2c(C)nc(-c3ccccn3)cc2=O)c(Br)c1,-4,0.49
CCOC1CC(CO)(NCc2ccon2)C1(C)C (configuration not stated),-4,0.58
CC1(C)CCc2ccccc2[C@H]1NC(=O)c1cc2c(=O)[nH]cnc2cn1,-1,0.09
CN(Cc1ccccc1)[C@@H]1COC2(C1)CN(C(=O)CC1CCCC1)C2,-15,2.35
O=C(COc1nnc(-c2ccccc2)o1)c1ccc2c(c1)COC2,-19,1.68
